Results reported in the supplement of paper PMC9135407.
“And” between values parts separate entries of the source, which are not always exact repeats. Equal entries are not always repeated. Structures can show the parent of a compound that is named as a salt. About 620 (11%) of roughly 5,800 compounds showed activity.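 The calls were made as follows: active = score above a cut-off or among the top three wells of a plate; in these data no inactive exceeds 0.85.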 The list shows a part of the results, in another mix than the full data.

Test system: primary human hepatic stellate cells (donor 1)
Test: scaled lipid accumulation score (0 = DMSO-like, 1 = nortriptyline-like); higher = stronger HSC inactivation (lipid re-accumulation), active = hit call of the paper
Settings: 48 h
[1] = library stock concentration: 3.33 mM
[2] = library stock concentration: 10 mM
[3] = library stock concentration: 80 uM
[4] = library stock concentration: 400 uM
[5] = library stock concentration: 2 mM
[6] = library stock concentration: 1 mM
[7] = library stock concentration: 6.7 mM

CC(C)c1cc(-c2n[nH]c(=O)n2-c2ccc3c(ccn3C)c2)c(O)cc1O [Ganetespib (STA-9090)]
scaled lipid accumulation score [1]: inactive: 0.691
scaled lipid accumulation score [2]: inactive: 0.649

CC(C)c1cc(-c2n[nH]c(=O)n2-c2ccc3c(ccn3C)c2)c(O)cc1O [Ganetespib]
scaled lipid accumulation score [3]: inactive: 0.602
scaled lipid accumulation score [4]: inactive: 0.802

CC(=O)O[C@]1(C(C)=O)CC[C@H]2[C@@H]3C=C(Cl)C4=CC(=O)[C@@H]5C[C@@H]5[C@]4(C)[C@H]3CC[C@@]21C [Cyproterone Acetate]
scaled lipid accumulation score [1]: inactive: 0.03
scaled lipid accumulation score [2]: inactive: ≤ 0

CC(=O)O[C@]1(C(C)=O)CC[C@H]2[C@@H]3C=C(Cl)C4=CC(=O)[C@@H]5C[C@@H]5[C@]4(C)[C@H]3CC[C@@]21C [Cyproterone acetate]
scaled lipid accumulation score: inactive: ≤ 0
scaled lipid accumulation score (library stock concentration: 4.8 mM): inactive: 0.037 and inactive: ≤ -0.001
scaled lipid accumulation score [2]: inactive: 0.449 and inactive: ≤ 0

COc1ccc(-c2ccc3ncc4c(c3c2)n(-c2ccc(N3CCNCC3)c(C(F)(F)F)c2)c(=O)n4C)cn1
scaled lipid accumulation score [3]: inactive: 0.133
scaled lipid accumulation score [5]: inactive: 0.546
scaled lipid accumulation score [1]: inactive: 0.237
scaled lipid accumulation score [2]: inactive: ≤ 0 and inactive: 0.223

Clc1ccc(CO/N=C(\Cn2ccnc2)c2ccc(Cl)cc2Cl)c(Cl)c1
scaled lipid accumulation score [2]: inactive: 0.512

Clc1ccc(CO/N=C(\Cn2ccnc2)c2ccc(Cl)cc2Cl)c(Cl)c1 [Oxiconazole nitrate]
scaled lipid accumulation score (library stock concentration: 4.7 mM): inactive: 0.077
scaled lipid accumulation score [2]: inactive: 0.068

Cc1nnsc1C(=O)Nc1ccc(-n2nc(C(F)(F)F)cc2C(F)(F)F)cc1
scaled lipid accumulation score [6]: inactive: ≤ 0

CCCSc1nc(N[C@@H]2C[C@H]2c2ccc(F)c(F)c2)c2nnn([C@@H]3C[C@H](OCCO)[C@@H](O)[C@H]3O)c2n1 [Ticagrelor]
scaled lipid accumulation score [1]: inactive: ≤ 0
scaled lipid accumulation score [2]: inactive: 0.193

CN1CCN(C2=Cc3ccccc3Oc3ccc(Cl)cc32)CC1.O=C(O)/C=C/C(=O)O
scaled lipid accumulation score [2]: active: 1.01

C=CC(=O)Nc1cccc(Nc2nc(Nc3ccc(Oc4ccnc(C(=O)NC)c4)cc3)ncc2F)c1
scaled lipid accumulation score [1]: inactive: ≤ -0.009
scaled lipid accumulation score [2]: inactive: 0.491

CCCCC(C)(C)[C@H](O)/C=C/[C@H]1C=CC(=O)[C@@H]1C/C=C\CCCC(=O)O [16,16-dimethyl Prostaglandin A2]
scaled lipid accumulation score [6]: inactive: ≤ 0

CCCCC(CC)CCC(CC(C)C)OS(=O)(=O)O (stereo not drawn)
scaled lipid accumulation score [2]: inactive: ≤ 0

Cn1cc(-c2cnn3c(N)c(Br)c([C@@H]4CCCNC4)nc23)cn1
scaled lipid accumulation score [1]: inactive: ≤ 0
scaled lipid accumulation score [2]: inactive: 0.521

N[C@@H]1CONC1=O
scaled lipid accumulation score [2]: inactive: ≤ 0

N[C@@H]1CONC1=O [Cycloserine]
scaled lipid accumulation score [2]: inactive: 0.019

N[C@@H]1CONC1=O [D-Cycloserine]
scaled lipid accumulation score [2]: inactive: 0.141

N[C@@H]1CONC1=O [D-cycloserine]
scaled lipid accumulation score: inactive: ≤ 0

CCc1c(C)[nH]c2c1C(=O)C(CN1CCOCC1)CC2 (stereo not drawn) [Molindone hydrochloride]
scaled lipid accumulation score: inactive: ≤ 0
scaled lipid accumulation score [2]: inactive: ≤ -0.01

CCc1c(C)[nH]c2c1C(=O)C(CN1CCOCC1)CC2 (stereo not drawn) [Moban]
scaled lipid accumulation score [2]: inactive: ≤ 0

Cc1ccc(NCCCc2ccccc2)c(N)c1
scaled lipid accumulation score [1]: inactive: ≤ -0.009
scaled lipid accumulation score [2]: inactive: ≤ 0

NC(=O)CNCCC(c1ccccc1)c1ccccc1 [N20C hydrochloride]
scaled lipid accumulation score [2]: inactive: 0.398

NC(=O)CNCCC(c1ccccc1)c1ccccc1 [N-(3,3-Diphenylpropyl)glycinamide]
scaled lipid accumulation score [2]: inactive: 0.155

C=CC(=O)Nc1cc(Nc2nccc(-c3cn(C)c4ccccc34)n2)c(OC)cc1N(C)CCN(C)C
scaled lipid accumulation score [2]: inactive: ≤ 0

C#Cc1cccc(Nc2ncnc3cc4c(cc23)OCCOCCOCCO4)c1 [Icotinib]
scaled lipid accumulation score [1]: inactive: ≤ 0
scaled lipid accumulation score [2]: inactive: ≤ 0

CC1=C(C(=O)O)N2C(=O)[C@@H](NC(=O)[C@H](N)C3=CCC=CC3)[C@H]2SC1 [Cephradine]
scaled lipid accumulation score (library stock concentration: 5.7 mM): inactive: ≤ -0.001
scaled lipid accumulation score [2]: inactive: ≤ 0

N[C@@H](CCC(=O)N[C@@H](CS)C(=O)NCC(=O)O)C(=O)O [Glutathione]
scaled lipid accumulation score [2]: inactive: ≤ 0

c1ccc(-c2[nH]ncc2-c2ccnc3ccccc23)nc1
scaled lipid accumulation score [6]: inactive: ≤ 0
scaled lipid accumulation score [2]: inactive: ≤ -0.001

CCC1(c2ccccc2)NC(=O)N(C)C1=O (stereo not drawn) [Mephenytoin]
scaled lipid accumulation score: inactive: 0.001
scaled lipid accumulation score (library stock concentration: 9.2 mM): inactive: ≤ -0.006

COc1cc2c3cc1Oc1cc(ccc1O)C[C@@H]1c4c(cc(OC)c(O)c4Oc4ccc(cc4)C[C@@H]3N(C)CC2)CC[N+]1(C)C [Tubocurarine chloride]
scaled lipid accumulation score (library stock concentration: 3.1 mM): inactive: ≤ 0

CC1(C)[C@H](C(=O)O)N2C(=O)C[C@H]2S1(=O)=O [Sulbactam]
scaled lipid accumulation score [1]: inactive: ≤ 0
scaled lipid accumulation score (library stock concentration: 8.6 mM): inactive: 0.002
scaled lipid accumulation score [2]: inactive: ≤ 0

CC1(C)[C@H](C(=O)O)N2C(=O)C[C@H]2S1(=O)=O [Sulbactam sodium]
scaled lipid accumulation score [1]: inactive: ≤ 0
scaled lipid accumulation score [2]: inactive: ≤ 0

Cc1ncc(CO)c(CO)c1O [Pyridoxine]
scaled lipid accumulation score (library stock concentration: 11.8 mM): inactive: ≤ 0

Cc1ncc(CO)c(CO)c1O [Pyridoxine hydrochloride]
scaled lipid accumulation score: inactive: ≤ 0

Cc1ncc(CO)c(CO)c1O [Pyridoxine HCl]
scaled lipid accumulation score [1]: inactive: ≤ 0
scaled lipid accumulation score [2]: inactive: 0.02

O=C(O)c1ccc(-c2c[nH]c3ncc(-c4ccccc4)cc23)cc1C1CCCC1
scaled lipid accumulation score [1]: inactive: ≤ -0.009
scaled lipid accumulation score [2]: inactive: 0.079 and inactive: ≤ -0.001

C[C@H](O)[C@H](O)[C@@H](O)[C@@H](O)C=O [L-(+)-Rhamnose Monohydrate]
scaled lipid accumulation score [1]: inactive: ≤ 0
scaled lipid accumulation score [2]: inactive: ≤ 0

CN1CCc2cc(Cl)c(O)cc2[C@@H](c2ccccc2)C1
scaled lipid accumulation score (library stock concentration: 9.9 mM): inactive: ≤ 0
scaled lipid accumulation score [2]: inactive: 0.251 and inactive: 0.216

Nc1ccc(N2C(=O)c3ccccc3C2=O)c(Cl)c1 [N-(4-Amino-2-chlorophenyl)phthalimide]
scaled lipid accumulation score [2]: inactive: 0.089

CC(=O)Oc1ccccc1C(=O)O [Aspirin]
scaled lipid accumulation score [1]: inactive: ≤ 0
scaled lipid accumulation score [2]: inactive: ≤ 0

CC(=O)Oc1ccccc1C(=O)O [Acetylsalicylic acid]
scaled lipid accumulation score [2]: inactive: 0.006

O=C(O)[C@H]1NCCC[C@H]1C(=O)O
scaled lipid accumulation score [2]: inactive: ≤ 0

CCCCCCOC(=O)[C@]1(O)C[C@@H]2O[C@@]1(C)n1c3ccccc3c3c4c(c5c6ccccc6n2c5c31)C(=O)NC4
scaled lipid accumulation score (library stock concentration: 900 uM): inactive: 0.034
scaled lipid accumulation score [1]: inactive: ≤ 0

CNS(=O)(=O)CCc1ccc2[nH]cc(C3CCN(C)CC3)c2c1 [Naratriptan hydrochloride]
scaled lipid accumulation score [2]: inactive: 0.019

CNS(=O)(=O)CCc1ccc2[nH]cc(C3CCN(C)CC3)c2c1 [Naratriptan]
scaled lipid accumulation score [1]: inactive: ≤ 0
scaled lipid accumulation score [2]: inactive: ≤ 0

CCCCCCCC/C=C\CCCCCCCC(=O)NCC(=O)O [N-Oleoyl Glycine]
scaled lipid accumulation score [6]: inactive: 0.029

COc1ccc2ccc(=O)oc2c1CC=C(C)C [Osthole]
scaled lipid accumulation score [1]: inactive: ≤ 0
scaled lipid accumulation score [2]: inactive: ≤ 0

O=C(Nc1nc2cccc(-c3ccc(CN4CCS(=O)(=O)CC4)cc3)n2n1)C1CC1 [Filgotinib (GLPG0634)]
scaled lipid accumulation score [1]: inactive: ≤ -0.009
scaled lipid accumulation score [2]: inactive: 0.119

O=C(Nc1nc2cccc(-c3ccc(CN4CCS(=O)(=O)CC4)cc3)n2n1)C1CC1 [Filgotinib]
scaled lipid accumulation score [3]: inactive: ≤ 0
scaled lipid accumulation score [4]: inactive: ≤ 0
scaled lipid accumulation score [5]: inactive: 0.007
scaled lipid accumulation score [2]: inactive: 0.289

N=C(N)NS(=O)(=O)c1ccc(N)cc1 [Sulfaguanidine]
scaled lipid accumulation score: inactive: ≤ 0
scaled lipid accumulation score [1]: inactive: ≤ 0
scaled lipid accumulation score (library stock concentration: 9.3 mM): inactive: ≤ 0
scaled lipid accumulation score [2]: inactive: ≤ -0.001 and inactive: ≤ 0

C[C@]12CC[C@H](O)CC1=CC[C@@H]1[C@@H]2CC[C@]2(C)C(n3cnc4ccccc43)=CC[C@@H]12 [Galeterone]
scaled lipid accumulation score [1]: inactive: 0.137

NC[C@@H]1CC[C@@H](N)[C@@H](O[C@H]2[C@H](O)[C@@H](O[C@H]3O[C@H](CO)[C@@H](O)[C@H](N)[C@H]3O)[C@H](N)C[C@@H]2N)O1 [Dibekacin]
scaled lipid accumulation score [2]: inactive: 0.108

CC1=C(/C=C/C(C)=C/C=C/C(C)=C/C(=O)O)C(C)(C)CCC1 [Retinoic acid]
scaled lipid accumulation score: inactive: ≤ 0
scaled lipid accumulation score [7]: inactive: ≤ -0.003
scaled lipid accumulation score [2]: inactive: ≤ 0 and inactive: 0.016

CC1=C(/C=C/C(C)=C/C=C/C(C)=C/C(=O)O)C(C)(C)CCC1 [Tretinon]
scaled lipid accumulation score [7]: inactive: ≤ 0
scaled lipid accumulation score [2]: inactive: ≤ 0

CC1=C(/C=C/C(C)=C/C=C/C(C)=C/C(=O)O)C(C)(C)CCC1 [Tretinoin]
scaled lipid accumulation score [1]: inactive: ≤ 0
scaled lipid accumulation score [2]: inactive: ≤ 0

CC1=C(/C=C/C(C)=C/C=C/C(C)=C/C(=O)O)C(C)(C)CCC1 [All trans retinoic acid]
scaled lipid accumulation score [6]: inactive: 0.006

CC1=C(/C=C/C(C)=C/C=C/C(C)=C/C(=O)O)C(C)(C)CCC1 [trans-Retinoic acid]
scaled lipid accumulation score [2]: inactive: ≤ 0

CC(O)C(O)[C@H]1CNc2nc(N)[nH]c(=O)c2N1 (stereo partly drawn) [(6R)-5,6,7,8-Tetrahydro-L-biopterin hydrochloride]
scaled lipid accumulation score [2]: inactive: ≤ 0

CC(C)=CC[C@@H](O)C1=CC(=O)c2c(O)ccc(O)c2C1=O [Shikonin]
scaled lipid accumulation score (library stock concentration: 6.9 mM): inactive: 0.554
scaled lipid accumulation score (library stock concentration: 17.3 mM): inactive: ≤ -0.012

NC(=O)c1cc[n+](CC2=C(C(=O)[O-])N3C(=O)[C@@H](NC(=O)[C@@H](c4ccccc4)S(=O)(=O)O)[C@H]3SC2)cc1 [Cefsulodin sodium salt]
scaled lipid accumulation score: inactive: ≤ 0

NC(=O)C1=CN(C2OC(COP(=O)(O)OP(=O)(O)OC[C@H]3O[C@@H](n4cnc5c(N)ncnc54)C(OP(=O)(O)O)[C@H]3O)C(O)C2O)C=CC1 (stereo partly drawn) [NADPH tetrasodium]
scaled lipid accumulation score [2]: inactive: ≤ -0.055

Cc1ccc(O)c(N=Nc2ccccc2)n1
scaled lipid accumulation score [2]: inactive: ≤ 0 and inactive: ≤ -0.006
